Hit rate of the full screen: of about 310,000 compounds, about 14,000 (4.5%) showed an effect of 50% or more. Effects have a minus sign here. The list shows a part of the results.
target: human ether-à-go-go-related gene (hERG) potassium channel (human, UniProt Q12809); assay: primary screen, population patch clamp on CHO cells stably expressing hERG
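Note: peak tail current of the secondary pulse compared with the same well before compound.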

human ether-à-go-go-related gene (hERG) potassium channel, sequence (Q12809 whole entry, looked up): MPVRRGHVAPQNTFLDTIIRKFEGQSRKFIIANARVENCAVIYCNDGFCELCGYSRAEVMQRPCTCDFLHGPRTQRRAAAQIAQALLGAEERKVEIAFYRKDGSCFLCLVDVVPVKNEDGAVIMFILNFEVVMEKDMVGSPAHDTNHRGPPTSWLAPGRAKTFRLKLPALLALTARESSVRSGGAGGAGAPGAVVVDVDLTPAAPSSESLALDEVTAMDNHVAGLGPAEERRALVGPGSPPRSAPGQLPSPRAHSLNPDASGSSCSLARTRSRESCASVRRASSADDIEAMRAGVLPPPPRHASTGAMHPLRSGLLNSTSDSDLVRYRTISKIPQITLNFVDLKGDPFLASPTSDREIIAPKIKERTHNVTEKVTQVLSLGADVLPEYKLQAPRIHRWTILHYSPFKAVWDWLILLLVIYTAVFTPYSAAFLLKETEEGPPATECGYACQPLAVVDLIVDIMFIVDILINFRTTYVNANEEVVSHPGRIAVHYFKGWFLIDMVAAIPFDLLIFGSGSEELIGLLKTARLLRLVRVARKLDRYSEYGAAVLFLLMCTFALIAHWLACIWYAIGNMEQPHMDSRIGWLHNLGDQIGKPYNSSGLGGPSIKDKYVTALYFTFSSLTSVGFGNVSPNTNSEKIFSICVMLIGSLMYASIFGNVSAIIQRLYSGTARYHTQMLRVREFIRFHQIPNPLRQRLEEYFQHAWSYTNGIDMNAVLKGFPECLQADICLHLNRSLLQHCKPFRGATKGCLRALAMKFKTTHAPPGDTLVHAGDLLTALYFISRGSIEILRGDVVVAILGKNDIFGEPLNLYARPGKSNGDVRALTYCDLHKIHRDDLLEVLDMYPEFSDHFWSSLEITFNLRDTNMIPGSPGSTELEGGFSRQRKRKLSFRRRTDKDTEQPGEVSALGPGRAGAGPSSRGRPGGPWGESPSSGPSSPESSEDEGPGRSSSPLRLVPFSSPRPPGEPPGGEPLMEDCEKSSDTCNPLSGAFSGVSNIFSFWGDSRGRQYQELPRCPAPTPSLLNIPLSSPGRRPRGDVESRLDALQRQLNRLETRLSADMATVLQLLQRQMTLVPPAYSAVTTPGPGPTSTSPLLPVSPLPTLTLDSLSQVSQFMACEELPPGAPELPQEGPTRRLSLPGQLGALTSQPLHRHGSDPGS

SMILES	hERG current change (%, negative = inhibition) at 10uM
Cc1cc(-n2cnc(-c3cn(C)nc3C)n2)no1	11%
Cc1ccc(-c2ccc(CCC(=O)O)n2-c2ccc(O)cc2)cc1	15.1%
O=C(CCc1nnc(CCCc2ccccc2)o1)NCCN1CCOC1=O	23.3%
COc1ccc(NC(=O)CSc2n[nH]c(-c3ccco3)n2)cc1	-2.42%
Cc1cccc(OCCCC(=O)Nc2ccc(N3CCOCC3)cc2)c1	13.5%
O=C1C=C(c2ccc(F)nc2)CCC1	1.44%
COc1ccc2sc(-c3ccccc3OC)c(C#CCCO)c2c1	12.6%
CCCNC(=O)C(Cc1ccc(C(F)(F)F)cc1)NC(=O)c1ccc(C#N)cc1 (stereo not shown)	-31.7%
NC(=O)[C@@H]1CCCN1C(=O)c1ccc2nc(Cc3ccccc3F)oc2c1	16.7%
C=CCNc1nnc(SCC(=O)Nc2ccccc2OC)c2ccccc12	-0.862%
O=C(CSc1ccc2nnc(-c3cccc(F)c3)n2n1)NCC1CCCO1 (stereo not shown)	-22%
Cc1ccc(S(C)(=O)=NC(=O)NC(=O)c2c(F)cccc2Cl)cc1 (stereo not shown)	7.36%
Cc1csc(SC(C)C(=O)Nc2ccc(Cl)cn2)n1 (stereo not shown)	-12.9%
CC(C)=CCc1c2c(c(O)c3c(=O)c4c(oc13)-c1cc(O)c(O)cc1OC4C=C(C)C)C=CC(C)(C)O2 (stereo not shown)	15.7%
CCOc1ccc(C2N(c3ccc(OC)cc3)C(=O)C3CCCN32)cc1OC (stereo not shown)	-3.49%
CC(C)(C)OC(=O)N1CCC(NC(=O)c2nc[nH]c2C(=O)NC2CCN(C(=O)OC(C)(C)C)CC2)CC1	-31.5%
O=C(CN1N=C(c2ccccc2)CCC1=O)NCCN1CCc2ccccc2C1	-15.7%
O=C(c1cccs1)N1CCN=C1SCc1ccc(F)cc1	6.51%
CCOc1ccc(-c2cc(C(=O)OC)nc3c2c(=O)n(C)c(=O)n3C)cc1	3.99%
CCCCN(CC)C(=O)CN1C(=O)c2ccccc2C1=O	3.83%
CCc1cccc(C)c1NC(=S)NCCc1c(C)[nH]c2ccc(C)cc12	3.67%
O=C(Nc1ccc(S(=O)(=O)Nc2ncccn2)cc1)c1ccc(F)c(S(=O)(=O)N2CCOCC2)c1	8.75%
Cc1cccn2c(=O)c3cc(C(=O)NCCc4ccccc4)c(=N)n(CCCn4ccnc4)c3nc12	-74.4%
CC(C)(C)C(=O)Nc1ccc(C(=O)N/N=C/c2ccccc2OC(=O)c2ccc(Cl)cc2)cc1	0.668%
O=[N+]([O-])c1cccc(N=NN(CCO)c2cccc([N+](=O)[O-])c2)c1	-0.0267%
CCC1CCCCN1C(=O)C(=O)c1cn(CC(=O)N(CC)CC)c2ccccc12 (stereo not shown)	21%
Cc1ccc(OCC(=O)NC(C)c2ccccc2)cc1C (stereo not shown)	-5.25%
CN(C)CCCNc1ncnc2oc(-c3ccccc3)c(-c3ccccc3)c12	-69.5%

SMILES	hERG current change (%, negative = inhibition) at 10uM
Cc1nn2c(c1-c1ccc(Cl)cc1)N=C(c1ccco1)CC2c1ccccc1 (stereo not shown)	7.49%
[Cl-].c1ccc(CC[C@@H]2CC[C@@H](CCc3ccccc3)N2)cc1	-66%
CS(=O)(=O)N1CCN(c2ccc(NC(=O)Cc3ccccc3)cc2)CC1	0.64%
CN1CCN(C2CC(=O)N(CCc3ccccc3)C2=O)CC1 (stereo not shown)	-4.9%
C=CCOc1ccccc1CN1CCCCCC1	-18.9%
COc1cc2c(cc1OC)C(COc1ccc(C(C)C)cc1)NCC2 (stereo not shown)	-46.2%
COc1ccc(C(=O)/C=C/c2ccc(OC)c(CN3CCOCC3)c2)cc1	-56.3%
COc1ccccc1-c1cn[nH]c1-c1ccc(OCc2ccccc2)cc1O	7.49%
COc1ccc(N2CC(C(=O)Nc3nc(-c4ccccc4)c(C(C)=O)s3)CC2=O)c(OC)c1 (stereo not shown)	-0.242%
Cc1nnc(NC(=O)CCC(=O)NCc2cccs2)s1	4.66%
CN(CCC#N)C(=O)COC(=O)c1ccccc1C(=O)c1ccc(Cl)c([N+](=O)[O-])c1	-0.749%
O=C(NCC(=O)N(Cc1ccco1)C(C(=O)NC1CCCC1)c1cccnc1)c1cccs1 (stereo not shown)	3.5%
CC(C)(C)OC(=O)NCCCCCc1nnc(SCC(N)=O)o1	2.91%
O/N=C/c1cc(Cl)ccc1OCc1ccccc1Cl	14.9%
Cc1c(C(=O)NC2CCCCC2)oc2ccccc12	-4.22%
CCCc1nnc(NC(=O)CCC(=O)N2CCN(C3c4ccccc4-c4ccccc43)CC2)s1	-3.76%
COc1ccc(CNC(=O)CC2C(=O)NCCN2CC(C)(C)C)c(OC)c1 (stereo not shown)	7.82%
CCc1ccc(-c2ccc(C(=O)O)cc2)nc1	21%
CN1CCN(CCCNC(=O)CCC(=O)N2CCOc3ccccc32)CC1	5.46%
Cc1cc(C)nc(SCc2ccc(C(=O)N/N=C/c3ccc(C(=O)O)cc3)cc2)n1	28.6%
Cc1cc(NC(=O)COC(=O)c2ccc(NS(=O)(=O)c3ccc(C)c(C)c3)cc2)no1	5.86%
CCCCN(CC)CCCNC(=O)c1cn(C)c(=O)c2c1c1ccccc1n2C	-29.2%
CC(=O)Nc1ccc(Oc2cc(C#N)c(C#N)cc2N2CCOCC2)cc1	-16.9%
CC(=O)c1cc(-c2ccccc2)n(CC(=O)N2CCC(C)CC2)c1C	-7.42%
CC(C)CCn1c(=O)c2ccccc2n2c(CN3C(=O)NC4(CCC(C)CC4)C3=O)nnc12 (stereo not shown)	-72.1%
COC(=O)/C=C1\N/C(=N\c2nc(C)cc(C)n2)N(c2ccc(Cl)cc2)C1=O	4.58%
CCN(CC)S(=O)(=O)c1cccc(NC(=O)CCSc2ccc(Cl)cc2)c1	10.3%
